Results: PubChem BioAssay AID1346428 (National Center for Advancing Translational Sciences (NCATS), 2018)
Values joined by “and” are separate entries in the source; they are usually repeats but may differ in a detail not shown here. Identical values can stand only once. Among all 48,000 compounds or so, about 1,200 (2.5%) were called active. Roughly 2% stayed inconclusive and do not appear here.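 Rule for the calls: active = activation of at least 60% and not above a set upper limit (about 1 call in 100 departs from these limits); inconclusive = activation of 40% to 60%, or above that upper limit; inactive = activation under 40%.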 Some of the results follow.

The compounds below were run against Probable G-protein coupled receptor 32 (Homo sapiens) (UniProt O75388) (assay: qHTS for Agonists of Human Resolvin D1 Receptor DRV1). Details: CHO-K1 GPR32 beta-arrestin PathHunter luminescence, 90 min; at 76.9 µM; active compounds read high; zero percent set by DMSO-only wells.
UniProt O75388, sequence (O75388 whole entry, looked up): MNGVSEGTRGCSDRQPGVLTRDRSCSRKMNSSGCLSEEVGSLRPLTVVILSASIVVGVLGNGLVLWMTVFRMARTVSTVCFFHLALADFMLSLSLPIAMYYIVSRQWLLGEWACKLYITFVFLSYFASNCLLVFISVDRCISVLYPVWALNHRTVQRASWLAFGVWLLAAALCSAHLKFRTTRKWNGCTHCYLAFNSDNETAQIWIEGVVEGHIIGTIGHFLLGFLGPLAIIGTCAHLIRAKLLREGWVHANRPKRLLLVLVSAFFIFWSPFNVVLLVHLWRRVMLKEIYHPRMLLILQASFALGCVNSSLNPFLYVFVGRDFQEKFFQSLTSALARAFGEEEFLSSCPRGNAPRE
Source text: Endogenous resolution of inflammation is known to be transduced through various GPCRs and their natural mediators of lipid nature. Resolvin D1 (RvD1) is one of the active players in resolution of acute inflammation through regulation of anti-inflammatory pathways; it is known to enhance phagocytosis of human macrophages, limits neutrophils infiltration, etc. […] The search for GPR32-activating small molecules with anti-inflammatory effects similar to its natural omega-3 derivative ligand in order to use them as research tools for further studies of inflammation and its resolution was the goal of this screening project. For primary screening assay, we used CHO-K1 GPR32 beta-arrestin cell line (DiscoveRx, #93-0321C2A) and the PathHunter(R) beta-Arrestin Assay (DiscoveRx) which measures recruitment of beta-arrestin to the GPR32 and generates chemiluminescent signal. These engineered cells stably transfected with GPR32 co-express GPR32-fused small 42-amino acid fragment of beta-Gal called ProLinktrade mark, and […] -tagged beta-Arrestin fusion protein. When GPR32 is activated by a ligand, it stimulates binding of beta -Arrestin to ProLink-tagged GPR32, and two parts of beta-Gal complement forming a functional enzyme. Upon substrate (PathHunter(R) Detection reagent) addition, beta-Gal hydrolyzes it and generates a chemiluminescent signal.
The cells were thawed and plated in thawing media containing F-12 HAM (Invitrogen, #11765-054), 10% FBS (Invitrogen, #10082), 1x Glutamine, and 1x Pen/Strep onto the 175-mm flask for 24 hours. Then, thawing media was replaced with Growth media which contains 800microg/mL Geneticin (Invitrogen, #10131) and 300microg/mL Hygromycin B (Invitrogen, #10687) in addition to described above. For the assay, the cells were harvested at ~80% confluent stage with Cell Dissociation buffer (Gibco, #13151), and seeded at 2,500 cells/ 3microL/well in assay media (PathHunter(R) Cell Plating Reagent, DiscoverX, #93-0563R1B) using MultiDrop Combi dispenser (Thermo Scientific, Logan, UT) onto white solid bottom tissue culture-treated 1536-well plates (Greiner # 789173-F) and allowed to attach overnight at 37 degrees C, 95% humidity, 5% CO2, . Next, 23nL/well of compound solutions in DMSO were added with a Pin Tool (Kalypsis, San Diego, CA) to the assay plates. As the basal control (EC0), 23 nL/well of DMSO was used on each plate. The cells were incubated in the presence of compounds or DMSO for 90 minutes at 37 degrees C, 5% CO2. Subsequently, 1.5microL/well of PathHunter(R) Detection Reagent prepared per the manufacturer's instructions was added to the assay plates with BioRAPTR FRDtrade mark dispenser (Beckman Coulter, San Francisco, CA) and incubated for 1 hour at ambient temperature prior to the measurement of the luminescent signal on ViewLux(R) uHTS Microplate Imager (Perkin Elmer, Waltham, MA).

activation, inactive:
Cc1cccc(-c2noc(-c3cccnc3NCc3ccco3)n2)c1 -9.69%
CC1=C(CC(=O)O)c2cc(F)ccc2/C1=C\c1ccc(S(C)=O)cc1 (centres undefined) -34% and -2.77%
O=C(Nc1cccc(NC(=O)c2ccc(Br)o2)c1)c1ccccc1 16.1%
COc1cccc(C2c3c(oc4ccc(C)cc4c3=O)C(=O)N2CCCN2CCOCC2)c1OC (centres undefined) -15.5%
Cc1ccc(CNc2nc3ccccc3n3c(C)nnc23)cc1 4.53%
CCCn1c2ccccc2c2cnn(CC(=O)N3CCC(C(=O)OCC)CC3)c(=O)c21 -7.53%
COc1ccc(C2C(=O)N(C3CCC(C)CC3)CC(=O)N2Cc2ccccc2Cl)cc1OC (centres undefined) -30.4%
O=C(NCCN1CCN(c2ccccc2)CC1)Nc1ccccc1Br -15%
Cc1ccc(Sc2c(C)nn(C(=O)COc3ccc(F)cc3)c2C)cc1 6.5%
Cc1onc(-c2ccccc2)c1-c1ccc(S(N)(=O)=O)cc1 2.37%
C[C@H]1CC2C3CCC4=CC(=O)C=C[C@]4(C)[C@@]3(Cl)[C@@H](O)C[C@]2(C)[C@@]1(O)C(=O)CO (some centres undefined) 3.89%
CCC(O)c1cc2c(cc1NC(=O)c1cccc(Br)c1)OCCO2 (centres undefined) -0.0722%
Cc1ccc(CNC(=O)CSc2nc(=O)[nH]c3c2CCCC3)cc1 -10.1%
CN(C)CCCN(C(=O)c1cccs1)c1nc2ccc(F)cc2s1 23.3%
O=C(CN1C(=O)CCc2cc(S(=O)(=O)N3CCOCC3)ccc21)Nc1cccc(Cl)c1 9.72%
N#Cc1nc(-c2ccc(COc3ccccc3)o2)oc1NCc1ccccc1 -13%
CN1CCN(c2oc(-c3ccc(COc4ccc(Cl)cc4)o3)nc2C#N)CC1 -6.13%
Cc1nc2ccccc2n1CCc1nc2c3ccccc3nc(SCC(=O)Nc3ccc(Br)cc3F)n2n1 -18.3%
COc1ccc(-c2nc3ccccc3o2)cc1NC(=O)C(C)Oc1ccc(Cl)cc1Cl (centres undefined) 12.5%
CC(C)C12CN3CC(C(C)C)(CN(C1)C3c1ccc(Cl)cc1)C2=O (centres undefined) 13.5%
O=C(Nc1ccccc1)c1cc([N+](=O)[O-])ccc1Cl -1.17%
COc1ccc(NC(=O)Cn2cnc3sc(C)c(S(=O)(=O)N4CCN(C)CC4)c3c2=O)cc1Cl 3.74%
CCCSc1ncc(Cl)c(C(=O)N(Cc2ccc(N(C)C)cc2)C2CCS(=O)(=O)C2)n1 (centres undefined) -34.1%
CCOC(=O)c1ccc(N2C(=O)c3n[nH]c(C)c3C2c2ccc(C(C)(C)C)cc2)cc1 (centres undefined) 10.9%
